Results as given in PMC4336329 (PLoS ONE, 2015).
Out of some 310,000 compounds screened, about 2,200 (0.71%) showed an effect of 50% or more. Effects have a minus sign here. Some of the results follow.

target: human ether-à-go-go-related gene (hERG) potassium channel (human, UniProt Q12809); experiment: primary screen, population patch clamp on CHO cells stably expressing hERG
Sequence (Q12809 whole entry, looked up): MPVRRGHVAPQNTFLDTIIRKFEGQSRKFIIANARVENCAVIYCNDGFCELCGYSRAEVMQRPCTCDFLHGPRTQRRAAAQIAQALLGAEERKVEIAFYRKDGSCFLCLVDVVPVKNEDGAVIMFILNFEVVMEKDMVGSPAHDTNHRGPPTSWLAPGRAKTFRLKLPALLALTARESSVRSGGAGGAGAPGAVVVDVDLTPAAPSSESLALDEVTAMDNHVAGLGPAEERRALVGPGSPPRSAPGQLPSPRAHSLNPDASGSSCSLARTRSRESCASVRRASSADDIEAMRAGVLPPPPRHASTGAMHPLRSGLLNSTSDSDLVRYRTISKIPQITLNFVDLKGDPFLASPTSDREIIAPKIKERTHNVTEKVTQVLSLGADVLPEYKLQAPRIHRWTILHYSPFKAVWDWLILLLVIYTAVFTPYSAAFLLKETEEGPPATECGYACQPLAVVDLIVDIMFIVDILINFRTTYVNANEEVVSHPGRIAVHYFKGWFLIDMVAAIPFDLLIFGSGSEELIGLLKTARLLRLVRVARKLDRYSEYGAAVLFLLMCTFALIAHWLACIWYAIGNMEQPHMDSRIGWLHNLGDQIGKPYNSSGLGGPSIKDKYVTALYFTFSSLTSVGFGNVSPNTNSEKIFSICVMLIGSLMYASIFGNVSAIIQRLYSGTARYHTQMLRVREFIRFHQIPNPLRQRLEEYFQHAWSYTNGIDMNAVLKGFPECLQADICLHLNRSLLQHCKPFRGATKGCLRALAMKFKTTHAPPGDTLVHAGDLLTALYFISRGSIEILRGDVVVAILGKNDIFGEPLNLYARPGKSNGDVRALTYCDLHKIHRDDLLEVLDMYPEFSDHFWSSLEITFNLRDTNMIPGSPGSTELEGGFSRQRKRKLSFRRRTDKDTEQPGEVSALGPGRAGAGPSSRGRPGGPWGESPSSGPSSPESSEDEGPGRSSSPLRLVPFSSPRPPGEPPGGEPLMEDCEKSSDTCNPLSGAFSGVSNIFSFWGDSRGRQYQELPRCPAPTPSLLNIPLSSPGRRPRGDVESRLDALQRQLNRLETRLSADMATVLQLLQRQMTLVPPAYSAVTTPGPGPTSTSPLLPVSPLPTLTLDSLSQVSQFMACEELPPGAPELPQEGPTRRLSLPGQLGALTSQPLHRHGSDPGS

SMILES | hERG current change (%, negative = inhibition) at 1uM [%]
O=C(Nc1ccccc1)c1ccccc1NC(=O)C(F)(F)F | 6.51
CCOC(=O)C1=C(COc2ccccc2)NC(=O)NC1c1cccc([N+](=O)[O-])c1 (centres unmarked) | 9.78
C/C(N)=C(/C#N)C(=O)CSc1ccc2c(c1)OCCO2 | 1.5
COc1ccc(-c2cc(C(F)(F)F)nc(S(C)(=O)=O)n2)cc1 | 7.98
COc1cc(/C=C2/C(=N)N3OC(C)=CC3=NC2=O)ccc1OC(=O)c1ccco1 | 16.9
O=C(N1CCOCCOc2ccccc2OCCOCC1)C(F)(F)F | 12.6
Brc1ccc(/C=N/n2cnnc2)s1 | 7.67
Cc1ccc(/C(N)=N/OC(=O)CCCc2ccccc2)cc1 | 10.7
COc1cc(OC)cc(C(=O)NNS(=O)(=O)c2ccc(F)cc2)c1 | 13
N#CCSc1nc2ccccc2o1 | 9.83
Cn1c(NC(=O)c2ccc(Cl)s2)cc(=O)n(C)c1=O | 1.13
COc1ccc(CC(=O)Nc2cc(NC(=O)Cc3ccc(OC)c(OC)c3)cc(C(=O)O)c2)cc1OC | 17.3
CC(Oc1ccc2c3c(c(=O)oc2c1)CCC3)C(=O)NC1CCN(Cc2ccccc2)CC1 (centres unmarked) | -13.8
O=C(Nc1ccc(Br)cc1)N1CCCCCCC1 | 5.12
NNc1nc(-c2ccccc2Cl)c2cc(Br)ccc2n1 | 14.2
COC(=O)CC1C(=O)NCCN1C(=O)Nc1ccc(Cl)c(Cl)c1 (centres unmarked) | 7.86
O=C(Cc1c(Sc2ccccc2)c2ccccc2n1Cc1ccccc1)NCCO | 16
COc1ccc(-n2nnc3c(=O)n(CC(=O)N4CCC(C)CC4)cnc32)cc1 | 4.68
C/C(=N\NC(=O)c1ccco1)c1cc(Cl)sc1Cl | 9.15
CCN(CC)c1ccc(NC(=O)COc2ccccc2C)cc1S(=O)(=O)Nc1ccccc1OC | 24.9
CCC(Sc1nc2ccccc2c2nc3ccccc3n12)C(=O)NCc1ccco1 (centres unmarked) | 8.33
Cc1c(C(c2ccc([N+](=O)[O-])cc2)c2c(C)n(C)n(-c3ccccc3)c2=O)c(=O)n(-c2ccccc2)n1C | -4.93

SMILES | hERG current change (%, negative = inhibition) at 1uM [%]
O=C(CCC(=O)N1CCOc2ccc(Cl)cc21)N1CCN(c2ccccn2)CC1 | -16.8
O=C(NC1=NCCS1)c1cc(Cl)ccc1Cl | 10.7
COc1ccc(CN2CCC(n3nccc3NC(=O)C3CCCC3)CC2)cc1 | -47.4
NC(=O)[C@@H]1CCCCNc2c(F)cc([N+](=O)[O-])cc2C(=O)N[C@@H](CCCN=C(N)N)C(=O)NCC(=O)N1 | 18
Cc1c(NC(=O)Cn2cc([N+](=O)[O-])cn2)c(=O)n(-c2ccccc2)n1C | 14.6
COc1cc(OC)c(C(=O)Nc2ccc(N(C)C)cc2)cc1OC | 4.96
COc1ccccc1CN1CCc2c([nH]c3ccccc23)C1 | 7.45
Cc1c(Cl)cccc1NC(=O)Cn1cccc1 | 1.99
COC(c1ccccc1)(c1ccccc1)C(Oc1nc(C)cc(C)n1)C(=O)O (centres unmarked) | 24.1
Cn1c(SCCC(=O)O)nnc1-c1ccncc1 | 12.1
O=C(NC(NC(=S)Nc1cccc(Cl)c1)C(Cl)(Cl)Cl)OCc1ccccc1 (centres unmarked) | 10.4
CCOC(=O)c1ccc(NC(=O)c2cccc(S(=O)(=O)N3c4ccccc4CC3C)c2)s1 (centres unmarked) | 14.4
COc1ccc(C=O)cc1 | 10.8
COCc1cc(=O)[nH]c(Nc2nc(C)c3ccccc3n2)n1 | 6.35
N#Cc1nc(-c2ccccc2F)oc1NC1CCCCC1 | 1.1
Cc1sc2nc(CSCC(=O)Nc3ccc(C(=O)N(C)C)cc3)[nH]c(=O)c2c1C | 13
COc1ccc(NC(=O)CSc2nc(C)cs2)cc1OC | 9.55
CCCc1nn2c(=O)cc(CSCC(=O)Nc3nnc(CC)s3)nc2s1 | 12.4
CC(C)Oc1cccc(C(=O)Nc2ccccc2N2CCOCC2)c1 | -1.22
Cc1cc(=O)cc(C)n1-c1ccccc1N1CCOCC1 | 7.99
COc1ccc(C2C(C(=O)c3cccs3)=C(O)C(=O)N2c2nncs2)cc1 (centres unmarked) | 11.7
CCn1c(C)c(C(C)=O)cc(C#N)c1=O | 8.34
